Five molecules from patent US20150322125A1 (COVAGEN, published 2015) can be followed below.

Read-outs that look alike come from different tables or passages of the source.

Common to all, as to test: cell-based or functional assay
The target of test [1] is T1, recombinant human glycosylated IL-17A (produced in-house in HEK EBNA cells) (human, UniProt Q16552 24-155, glycosylated (N-linked glycosylation site; position not given)).
Test [2] addresses T2, non-glycosylated human IL-17A (R&D Systems) (human, UniProt Q16552 24-155).
Test [3] has as its target T2, non-glycosylated human IL-17A (R&D …). This is another data set of the same source.
For test [4], the target named is T1, recombinant human glycosylated IL-17A …. The source holds these as a separate data set.
For test [5], the target named is T2, non-glycosylated human IL-17A (R&D …). The source holds these as a separate data set.

B1: Fyn SH3-derived polypeptide 1L3-B09 (parental clone) (designed binder, not shown: small tags and cut ends)
chain: GVTLFVALYDYANHGNRDLSFHKGEKFQILSTHEYEDWWEARSLTTGETGYIPSNYVAPVDSIQ
As for B1, the “IC50 value (nM), inhibition of IL-6 production by normal human dermal fibroblasts stimulated with IL-17A and TNFα” value (shortened to “IC50 value (nM), inhibition”) in test [1] is 300 nM.

B2: Fyn SH3-derived polypeptide 11L0-C06 (designed binder, not shown: small tags and cut ends)
chain: GVTLFVALYDYKQKGHLDLSFHKGEKFQILSTHEYEDWWEARSLTTGETGYIPSNYVAPVDSIQ
Turning to B2, in test [2], the “IC50 (read off the curve); % inhibition of IL-6 release from normal human dermal fibroblasts stimulated with IL-17A + TNFα” value (shortened to “IC50 (read off the curve); % inhibition”) was around 40 nM. The “IC50 value (nM), inhibition” value in test [1] was 35 nM.

B3: Fyn SH3-derived polypeptide 11L10-A05 (designed binder, not shown: small tags and cut ends)
chain: GVTLFVALYDYSSRGVLDLSFHKGEKFQILSTHEYEDWWEARSLTTGETGYIPSNYVAPVDSIQ
As for B3, the “IC50 value (nM), inhibition” value in test [1] came out at 28 nM. Moreover, in test [3], the “IC50 (read off the curve); % inhibition” value was around 40 nM.

B4: Fyn SH3-derived polypeptide 11L11-A09 (designed binder, not shown: small tags and cut ends)
chain: GVTLFVALYDYSRKSNLDLSFHKGEKFQILSTHEYEDWWEARSLTTGETGYIPSNYVAPVDSIQ
As for B4, the “IC50 value (nM), inhibition” value in test [4] worked out at 66 nM.

B5: Fyn SH3-derived polypeptide 11L6-F03 (designed binder, not shown: small tags and cut ends)
chain: GVTLFVALYDYDKLSALDLSFHKGEKFQILSTHEYEDWWEARSLTTGETGYIPSNYVAPVDSIQ
Consider B5, for which the “IC50 (read off the curve); % inhibition” value in test [5] is around 50 nM. The “IC50 value (nM), inhibition” value in test [1] is 63 nM.
